Reference: the supplement of paper PMC4723716
Several values for one entry are separate records, joined by “and”; a condition that tells them apart may be missing. Identical values can stand only once. ± gives the uncertainty stated by the source. The full ranking holds about 9,900 compounds; the median of “viability index relative to DMSO control” is about 1, and the lowest 2% start at about 0.85. The list shows a part of the results.

Test system: Plasmodium falciparum NF54 stage V gametocytes
Experiment: viability index relative to DMSO control (fraction); higher = less gametocyte killing
Conditions: 2.5 µM, incubation time: 72 h
Method in brief: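 Compound at 2.5 µM was incubated for 72 hr at 37°C under low oxygen with P. falciparum NF54 stage V gametocytes (0.75% gametocytemia, 1.25% hematocrit, 10 µl, serum-free screening medium) in 1,536-well plates. Staining used 3 µl of 2.5 µM MitoTracker Red CMXRos plus 0.13% saponin for one to two hours, and red particles of 20–70 µm2 were counted in one imaged field per well. Each viability index is that count relative to the plate mean of solvent-only wells.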

[1] = library set: Broad Institute DOS

Compound | viability index [1] | viability index (library set: Broad Institute Blood Stage)
CO[C@@H]1CN(C)C(=O)c2cc(NC(=O)C3CCOCC3)ccc2OC[C@H](C)NC[C@H]1C | 1.04 ± 0.015 | 
O=C(C[C@@H]1C[C@H]2c3cc(NC(=O)C4CCC4)ccc3O[C@H]2[C@@H](CO)O1)NC1CCCC1 | 1.04 ± 0.021 | 
COC(=O)C[C@H]1C[C@@H]2c3cc(NC(=O)C4CCOCC4)ccc3O[C@@H]2[C@@H](CO)O1 | 1.08 ± 0.066 | 
C[C@@H]1CCCCO[C@H](CN(C)S(=O)(=O)c2cn(C)cn2)[C@@H](C)CN([C@H](C)CO)C(=O)c2cc(N(C)C)ccc2O1 | 1.053 ± 0.01 | 
O=C(C[C@H]1CC[C@@H]2NC[C@H](O)COC[C@H]2O1)NCCc1ccncc1 | 1.035 ± 0.006 | 
COc1ccc(S(=O)(=O)Nc2ccc3c(c2)C(=O)N([C@@H](C)CO)C[C@@H](C)[C@H](CN(C)C(=O)Nc2c(C)noc2C)OCCCC[C@H](C)O3)cc1 | 1.08 ± 0.031 | 
COc1ccc(NC(=O)N(C)C[C@H]2OCCCC[C@@H](C)Oc3ccc(NC(=O)c4ccncc4)cc3C(=O)N([C@H](C)CO)C[C@H]2C)cc1 | 1.09 ± 0.031 | 
COc1cccc(C#Cc2ccc3c(c2)O[C@H](CN(C)C(=O)CN2CCOCC2)[C@@H](C)CN([C@H](C)CO)S3(=O)=O)c1 | 1.03 ± 0.013 | 
O=C(NC1CCC1)[C@H]1[C@H](CO)[C@H]2Cn3c(ccc(-c4ccncc4)c3=O)[C@@H]1N2Cc1cocn1 | 1.04 ± 0.018 | 
CN(C)C(=O)c1ccc(-c2ccc([C@@H]3[C@@H]4CN(C(=O)C5CC5)C[C@H]3N4)cc2)cc1 | 1.12 ± 0.087 | 
C[C@H]1CN([C@@H](C)CO)C(=O)c2cccc(NC(=O)NC3CCCCC3)c2O[C@H]1CN(C)Cc1ccc(C(F)(F)F)cc1 | 0.995 ± 0.028 | 
CCC(=O)N1[C@H](C#N)[C@H](c2ccccc2-c2ccccc2)[C@H]1CO | 1.07 ± 0.03 | 
C[C@@H]1CN([C@@H](C)CO)C(=O)c2ccccc2-c2ccccc2CO[C@@H]1CN(C)Cc1ccccc1C(F)(F)F | 0.8276 ± 0.0015 | 
CCCC#Cc1ccc([C@H]2[C@@H](CO)N3C(=O)CN(C(=O)Nc4cccc(F)c4)C[C@H]23)cc1 | 1.04 ± 0.043 | 
N#Cc1cccc(-c2ccc([C@@H]3[C@@H]4CN(C(=O)Cc5ccncc5)C[C@H]3N4)cc2)c1 | 1.04 ± 0.013 | 
O=C(O)C[C@H]1C[C@@H]2c3cc(NC(=O)Cc4ccncc4)ccc3O[C@@H]2[C@@H](CO)O1 | 1.09 ± 0.017 | 
Cc1ccc(S(=O)(=O)NCC[C@@H]2CC[C@H](NC(=O)c3cccnc3)[C@H](CO)O2)cc1 | 1.12 ± 0.061 | 
COc1cccc(NC(=O)Nc2ccc3c(c2)C(=O)N(C)C[C@H](OC)[C@@H](C)CN(CC2CC2)[C@H](C)CO3)c1 | 0.971 ± 0.042 | 
Cc1noc(C)c1S(=O)(=O)Nc1ccc2c(c1)CC(=O)N([C@@H](C)CO)C[C@H](C)[C@@H](CN(C)Cc1ccc(Oc3ccccc3)cc1)O2 | 1 ± 0.071 | 
O=C(C[C@@H]1CC[C@H]2[C@@H](COC[C@H](O)CN2S(=O)(=O)c2ccc(F)cc2)O1)NCCN1CCCCC1 | 1.08 ± 0.023 | 
COCC(=O)Nc1ccc2c(c1)[C@@H]1C[C@H](CC(=O)NCc3ccc4c(c3)OCO4)O[C@@H](CO)[C@@H]1O2 | 1.09 ± 0.036 | 
O=C(C[C@@H]1CC[C@H]2[C@@H](COC[C@H](O)CN2Cc2nccs2)O1)N1CCC(Cc2ccccc2)CC1 | 1.13 ± 0.023 | 

Compound | viability index [1] | viability index (library set: Broad Institute Blood Stage)
COCC(=O)N1[C@H](C#N)[C@H](c2ccccc2-c2cccc(C)c2)[C@H]1CO | 1.15 ± 0.053 | 
Cc1noc(C)c1NC(=O)Nc1ccc2c(c1)C(=O)N([C@@H](C)CO)C[C@@H](C)[C@H](CN(C)Cc1ccc3c(c1)OCO3)OCCCC[C@H](C)O2 | 1.17 ± 0.11 | 
COc1cccc(CNC(=O)C[C@H]2CC[C@H]3[C@H](COc4ccc(NS(=O)(=O)c5ccccc5F)cc4C(=O)N3C)O2)c1 | 1.1 ± 0.067 | 
O=C(Nc1ccc(Cl)cc1)N1[C@@H]2CNC[C@H]1[C@@H]2c1ccc(-c2ccccc2)cc1 | 1.06 ± 0.05 | 
CN1C(=O)c2cc(NC(=O)c3cccc(F)c3)ccc2OC[C@H]2O[C@H](CC(=O)NCC3CCCCC3)CC[C@@H]21 | 1.02 and 1.15 | 
O=C(c1ccccc1F)N1C[C@@H]2[C@H](c3ccccc31)[C@H](CO)N2C(=O)Nc1ccccc1 | 0.853 ± 0.022 | 
N#C[C@@H]1[C@H](c2ccccc2-c2ccccc2F)[C@@H](CO)N1C(=O)C1CCC1 | 1.1 ± 0.019 | 
COc1ccccc1-c1ccc([C@@H]2[C@@H](C#N)N(C(=O)NC3CCCCC3)[C@@H]2CO)cc1 | 1.05 ± 0.099 | 
O=C(C[C@H]1C[C@@H]2c3cc(NC(=O)c4ccc5c(c4)OCO5)ccc3O[C@@H]2[C@H](CO)O1)NCc1ccc(Oc2ccccc2)cc1 | 1.12 ± 0.039 | 
COc1ccc2c3c([C@H](CO)N(CC4CCOCC4)C[C@]33CCN(CC3)C(=O)CN(C)C)n(C)c2c1 | 1 ± 0.073 | 
C[C@@H]1CN([C@@H](C)CO)C(=O)c2c(c3ccccc3n2C)-c2ccccc2CO[C@H]1CN(C)C(=O)Nc1ccc2c(c1)OCO2 | 0.888 ± 0.042 | 
C[C@H]1CC(=O)N[C@H](c2ccccc2)C/C=C\C[C@@H](c2ccc3c(c2)OCO3)NC1=O | 1.05 ± 0.018 | 
CN1C(=O)c2cc(NS(=O)(=O)c3ccccc3F)ccc2OC[C@@H]2O[C@H](CC(=O)NC3Cc4ccccc4C3)CC[C@H]21 | 0.9731 ± 0.0061 | 
C[C@H](CO)N1C[C@H](C)[C@@H](CN(C)C(=O)c2cc(-c3ccccc3)on2)OCc2cnnn2CCCC1=O | 1.04 ± 0.061 | 
O=C(C1CC1)N1CC2(C1)[C@H](c1ccccc1)[C@@H](CO)N2S(=O)(=O)c1ccccc1 | 1.12 ± 0.13 | 
COc1ccccc1-c1ccc([C@H]2[C@H](CO)N[C@@H]2C#N)cc1 | 1.065 ± 0.0054 | 
NCC[C@@H]1CC[C@H](NC(=O)NC2CCCCC2)[C@H](CO)O1 | 0.992 ± 0.012 | 
COCc1cn([C@@H]2C[C@@H]3O[C@@H](CO)CC[C@@H]3O[C@@H]2CCc2ccc(-c3ccc(OC)cc3)cc2)nn1 |  | 0.811 ± 0.063
COc1cccc(S(=O)(=O)N2[C@@H]3CNC[C@H]2[C@H]3c2ccc(/C=C/c3ccccc3)cc2)c1 | 1.07 ± 0.047 | 
CN1CCN(C(=O)C[C@@H]2CC[C@@H]3[C@H](COC[C@H](O)CN3C(=O)c3ccccc3F)O2)CC1 | 1.12 ± 0.044 | 
CNC[C@@H]1OCCCC[C@H](C)Oc2ccc(NC(=O)Nc3ccc(OC)cc3)cc2C(=O)N([C@@H](C)CO)C[C@@H]1C | 1.04 ± 0.1 | 
CN(C)C(=O)C[C@H]1C[C@H]2c3cc(NC(=O)c4cccnc4)ccc3O[C@H]2[C@@H](CO)O1 | 1.0792 ± 7.3e-05 | 
